From article PMC12820563, “FoxP3 forms a head-to-head dimer in vivo and stabilizes its multimerization on adjacent microsatellites” come the findings set out here.

Some of the results follow.

For the experiment, the target named is T1, MBP-FoxP1dN (Mus musculus, UniProt P58462 326-579).
T1 sequence: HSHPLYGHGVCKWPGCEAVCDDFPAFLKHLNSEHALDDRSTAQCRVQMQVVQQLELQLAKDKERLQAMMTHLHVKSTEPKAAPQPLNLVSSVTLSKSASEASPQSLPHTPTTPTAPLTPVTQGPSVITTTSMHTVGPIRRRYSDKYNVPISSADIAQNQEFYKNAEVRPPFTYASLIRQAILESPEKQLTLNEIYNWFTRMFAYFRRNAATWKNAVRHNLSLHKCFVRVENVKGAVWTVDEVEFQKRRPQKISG
The experiment in a line: PD-seq (MBP pull-down with sequencing); 20 mM Tris-HCl pH 7.5, 100 mM NaCl, 1.5 mM MgCl2, 0.4 uM protein, 0.1 uM dsDNA library, 30 min, room temperature, amylose pull-down; high values mean tight binding. The settings on record: protein: recombinant; tags: His6-MBP; chain copies: 2; dsDNA, one strand shown. The method, boiled down: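 Mouse FoxP3 or FoxP1 fragment lacking the N-terminus, His6-MBP-tagged and expressed in E. coli, was incubated at 0.4 µM with 0.1 µM Klenow-filled degenerate double-stranded DNA library for 30 min at room temperature in Tris pH 7.5 buffer with NaCl and MgCl2. Complexes captured on amylose resin were washed three times and their DNA sequenced on Illumina. Binding is reads-per-million enrichment of pull-down over input, replicates pooled.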
For the sequence “GATGATTGTTCTCCCAGCTGATGAATTTACAGGTTCGAGTAAACAAATTTTCCTAATCTTTCTGTTCAAGCGCCATCTAC”, the binding signal was 1.19 RPM ratio (pull-down/input). In the case of “GATGATTGTTCTCCCAGCTGATGAATTTGAAAACTCGAGTAAACAAATTTTCCTAATCTTTCTGTTCAAGCGCCATCTAC”, the binding signal is 0.813 RPM ratio (pull-down/input). The result for “GATGATTGTTCTCCCAGCTGATGAATTGTGTAAATCGAGTAAACAAATTTTCCTAATCTTTCTGTTCAAGCGCCATCTAC” reads 1.59 RPM ratio (pull-down/input); that for “GATGATTGTTCTCCCAGCTGATGAATTAGTCGTCTCGAGTAAACAAATTTTCCTAATCTTTCTGTTCAAGCGCCATCTAC”, 0.85 RPM ratio (pull-down/input). Regarding “GATGATTGTTCTCCCAGCTGATGAATTCGATCCTTCGAGTAAACAAATTTTCCTAATCTTTCTGTTCAAGCGCCATCTAC”, the binding signal is 0.833 RPM ratio (pull-down/input). Turning to “GATGATTGTTCTCCCAGCTGATGAATTAAGTATATCGAGTAAACAAATTTTCCTAATCTTTCTGTTCAAGCGCCATCTAC”, the binding signal was 1.11 RPM ratio (pull-down/input). On to “GATGATTGTTCTCCCAGCTGATGAATTATACGCGTCGAGTAAACAAATTTTCCTAATCTTTCTGTTCAAGCGCCATCTAC”, for which the binding signal is 1.03 RPM ratio (pull-down/input). The result for “GATGATTGTTCTCCCAGCTGATGAATTGTAATTATCGAGTAAACAAATTTTCCTAATCTTTCTGTTCAAGCGCCATCTAC” reads 1.54 RPM ratio (pull-down/input); that for “GATGATTGTTCTCCCAGCTGATGAATTTTAGGCGTCGAGTAAACAAATTTTCCTAATCTTTCTGTTCAAGCGCCATCTAC”, 0.918 RPM ratio (pull-down/input). For “GATGATTGTTCTCCCAGCTGATGAATTGGATTCGTCGAGTAAACAAATTTTCCTAATCTTTCTGTTCAAGCGCCATCTAC”, the binding signal is 0.892 RPM ratio (pull-down/input). Take “GATGATTGTTCTCCCAGCTGATGAATTGCAAGACTCGAGTAAACAAATTTTCCTAATCTTTCTGTTCAAGCGCCATCTAC”: the binding signal was 0.996 RPM ratio (pull-down/input). For “GATGATTGTTCTCCCAGCTGATGAATTCGCCCCGTCGAGTAAACAAATTTTCCTAATCTTTCTGTTCAAGCGCCATCTAC”, the binding signal is 0.769 RPM ratio (pull-down/input). Turning to “GATGATTGTTCTCCCAGCTGATGAATTCTAGGCTTCGAGTAAACAAATTTTCCTAATCTTTCTGTTCAAGCGCCATCTAC”, the binding signal was 0.817 RPM ratio (pull-down/input).

For the sequence “GATGATTGTTCTCCCAGCTGATGAATTCCCTTATTCGAGTAAACAAATTTTCCTAATCTTTCTGTTCAAGCGCCATCTAC”, the binding signal is 0.881 RPM ratio (pull-down/input). “GATGATTGTTCTCCCAGCTGATGAATTCTCAGATTCGAGTAAACAAATTTTCCTAATCTTTCTGTTCAAGCGCCATCTAC”: the binding signal was 0.815 RPM ratio (pull-down/input). For “GATGATTGTTCTCCCAGCTGATGAATTGGGACGGTCGAGTAAACAAATTTTCCTAATCTTTCTGTTCAAGCGCCATCTAC”, the binding signal is 0.812 RPM ratio (pull-down/input). For the sequence “GATGATTGTTCTCCCAGCTGATGAATTGCACTTATCGAGTAAACAAATTTTCCTAATCTTTCTGTTCAAGCGCCATCTAC”, the binding signal is 1.29 RPM ratio (pull-down/input).

As for “GATGATTGTTCTCCCAGCTGATGAATTAAATAATTCGAGTAAACAAATTTTCCTAATCTTTCTGTTCAAGCGCCATCTAC”, the binding signal was 1.3 RPM ratio (pull-down/input).

Regarding “GATGATTGTTCTCCCAGCTGATGAATTACCATAATCGAGTAAACAAATTTTCCTAATCTTTCTGTTCAAGCGCCATCTAC”, the binding signal is 1.42 RPM ratio (pull-down/input). Consider “GATGATTGTTCTCCCAGCTGATGAATTGGTGGTATCGAGTAAACAAATTTTCCTAATCTTTCTGTTCAAGCGCCATCTAC”, for which the binding signal is 1.03 RPM ratio (pull-down/input).

With “GATGATTGTTCTCCCAGCTGATGAATTGCTCCTGTCGAGTAAACAAATTTTCCTAATCTTTCTGTTCAAGCGCCATCTAC”, the binding signal was 0.929 RPM ratio (pull-down/input).

With “GATGATTGTTCTCCCAGCTGATGAATTCGCTCCGTCGAGTAAACAAATTTTCCTAATCTTTCTGTTCAAGCGCCATCTAC”, the binding signal is 0.904 RPM ratio (pull-down/input). The result for “GATGATTGTTCTCCCAGCTGATGAATTACTCTTATCGAGTAAACAAATTTTCCTAATCTTTCTGTTCAAGCGCCATCTAC” reads 1.1 RPM ratio (pull-down/input). The result for “GATGATTGTTCTCCCAGCTGATGAATTGTACGAATCGAGTAAACAAATTTTCCTAATCTTTCTGTTCAAGCGCCATCTAC” reads 1.02 RPM ratio (pull-down/input). “GATGATTGTTCTCCCAGCTGATGAATTCTTGGCATCGAGTAAACAAATTTTCCTAATCTTTCTGTTCAAGCGCCATCTAC”: the binding signal is 1.03 RPM ratio (pull-down/input).

For “GATGATTGTTCTCCCAGCTGATGAATTACCCACTTCGAGTAAACAAATTTTCCTAATCTTTCTGTTCAAGCGCCATCTAC”, the binding signal is 0.978 RPM ratio (pull-down/input). The result for “GATGATTGTTCTCCCAGCTGATGAATTGAACCACTCGAGTAAACAAATTTTCCTAATCTTTCTGTTCAAGCGCCATCTAC” reads 0.821 RPM ratio (pull-down/input).

As for “GATGATTGTTCTCCCAGCTGATGAATTATGACGTTCGAGTAAACAAATTTTCCTAATCTTTCTGTTCAAGCGCCATCTAC”, the binding signal is 1.02 RPM ratio (pull-down/input). As for “GATGATTGTTCTCCCAGCTGATGAATTGTGCTGATCGAGTAAACAAATTTTCCTAATCTTTCTGTTCAAGCGCCATCTAC”, the binding signal was 1.18 RPM ratio (pull-down/input). The same measure for “GATGATTGTTCTCCCAGCTGATGAATTCATGCTATCGAGTAAACAAATTTTCCTAATCTTTCTGTTCAAGCGCCATCTAC”: 1 RPM ratio (pull-down/input); for “GATGATTGTTCTCCCAGCTGATGAATTCTAGCCATCGAGTAAACAAATTTTCCTAATCTTTCTGTTCAAGCGCCATCTAC”: 0.949 RPM ratio (pull-down/input); for “GATGATTGTTCTCCCAGCTGATGAATTGCACACCTCGAGTAAACAAATTTTCCTAATCTTTCTGTTCAAGCGCCATCTAC”: 1.13 RPM ratio (pull-down/input). Consider “GATGATTGTTCTCCCAGCTGATGAATTAATCCAATCGAGTAAACAAATTTTCCTAATCTTTCTGTTCAAGCGCCATCTAC”, for which the binding signal is 1.06 RPM ratio (pull-down/input). Take “GATGATTGTTCTCCCAGCTGATGAATTGATTCCGTCGAGTAAACAAATTTTCCTAATCTTTCTGTTCAAGCGCCATCTAC”: the binding signal is 0.955 RPM ratio (pull-down/input). The same measure for “GATGATTGTTCTCCCAGCTGATGAATTCCATGGATCGAGTAAACAAATTTTCCTAATCTTTCTGTTCAAGCGCCATCTAC”: 0.841 RPM ratio (pull-down/input). The same measure for “GATGATTGTTCTCCCAGCTGATGAATTTTTGACGTCGAGTAAACAAATTTTCCTAATCTTTCTGTTCAAGCGCCATCTAC”: 0.91 RPM ratio (pull-down/input); for “GATGATTGTTCTCCCAGCTGATGAATTATCTGATTCGAGTAAACAAATTTTCCTAATCTTTCTGTTCAAGCGCCATCTAC”: 0.984 RPM ratio (pull-down/input).

For the sequence “GATGATTGTTCTCCCAGCTGATGAATTATCCGCTTCGAGTAAACAAATTTTCCTAATCTTTCTGTTCAAGCGCCATCTAC”, the binding signal is 0.911 RPM ratio (pull-down/input). In the case of “GATGATTGTTCTCCCAGCTGATGAATTGATTTATTCGAGTAAACAAATTTTCCTAATCTTTCTGTTCAAGCGCCATCTAC”, the binding signal was 1.27 RPM ratio (pull-down/input).

For “GATGATTGTTCTCCCAGCTGATGAATTTGCTTCATCGAGTAAACAAATTTTCCTAATCTTTCTGTTCAAGCGCCATCTAC”, the binding signal was 1.11 RPM ratio (pull-down/input).
